Measurements as given in publication PMC4336329 (PLoS ONE, 2015).
Hit rate of the full screen: of about 310,000 compounds, about 2,200 (0.71%) showed an effect of 50% or more. Effects have a minus sign here. The list shows a part of the results.

Biological target: human ether-à-go-go-related gene (hERG) potassium channel (human, UniProt Q12809)
Experiment: primary screen, population patch clamp on CHO cells stably expressing hERG

Sequence of human ether-à-go-go-related gene (hERG) potassium channel (Q12809 whole entry, looked up): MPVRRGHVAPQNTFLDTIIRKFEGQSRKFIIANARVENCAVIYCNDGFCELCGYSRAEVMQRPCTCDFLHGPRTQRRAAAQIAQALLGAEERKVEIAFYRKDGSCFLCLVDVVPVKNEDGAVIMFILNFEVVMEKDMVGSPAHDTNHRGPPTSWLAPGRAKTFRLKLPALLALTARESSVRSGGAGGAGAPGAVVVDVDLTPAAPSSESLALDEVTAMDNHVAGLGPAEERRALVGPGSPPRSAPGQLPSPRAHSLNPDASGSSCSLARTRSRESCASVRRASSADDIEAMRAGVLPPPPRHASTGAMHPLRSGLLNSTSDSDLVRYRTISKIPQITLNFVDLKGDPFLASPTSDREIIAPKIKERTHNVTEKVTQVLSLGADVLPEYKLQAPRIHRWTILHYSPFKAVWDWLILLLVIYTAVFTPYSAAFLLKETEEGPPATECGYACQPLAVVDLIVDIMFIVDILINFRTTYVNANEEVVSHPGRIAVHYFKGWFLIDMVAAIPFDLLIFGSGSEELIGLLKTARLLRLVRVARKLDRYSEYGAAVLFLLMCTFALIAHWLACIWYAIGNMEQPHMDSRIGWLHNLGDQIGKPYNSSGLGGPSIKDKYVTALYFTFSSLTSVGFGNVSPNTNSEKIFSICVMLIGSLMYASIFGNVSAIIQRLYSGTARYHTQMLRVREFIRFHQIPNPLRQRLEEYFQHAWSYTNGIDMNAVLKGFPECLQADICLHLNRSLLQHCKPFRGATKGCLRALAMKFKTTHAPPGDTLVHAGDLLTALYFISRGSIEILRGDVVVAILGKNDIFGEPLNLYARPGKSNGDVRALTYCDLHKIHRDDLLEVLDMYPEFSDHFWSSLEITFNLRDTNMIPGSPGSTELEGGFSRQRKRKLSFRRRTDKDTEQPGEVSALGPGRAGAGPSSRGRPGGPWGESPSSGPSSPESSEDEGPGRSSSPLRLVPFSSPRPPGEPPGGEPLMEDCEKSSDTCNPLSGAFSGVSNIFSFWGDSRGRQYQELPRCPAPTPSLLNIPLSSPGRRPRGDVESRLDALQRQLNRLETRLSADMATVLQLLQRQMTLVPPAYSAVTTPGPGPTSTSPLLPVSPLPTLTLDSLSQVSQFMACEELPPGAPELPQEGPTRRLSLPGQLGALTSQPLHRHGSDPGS

Compared with NC(N)=NS(=O)(=O)c1ccc(NC(=S)NC(=O)c2sc3ccccc3c2Cl)cc1, O=C(Cc1ccccc1)Nc1ccc(NC(=O)c2cccs2)cc1 is lower in “hERG current change (%, negative = inhibition) at 1uM” value: 16.6% for the first, 7.03% for the second.

Going from O=C1C2CCCN2C(c2cccc(Cl)c2)N1c1ccccn1 (stereo not drawn) to O=C(c1ccncc1)N1CCN(S(=O)(=O)c2ccccc2Br)CC1, the “hERG current change (%, negative = inhibition) at 1uM” value falls from 8.58% to 6.13%.

First: Cc1sc2nc(C3CC3)nc(SCC(=O)NCc3ccco3)c2c1C
Second: S=C(NCCC1=CCCCC1)NCc1ccco1
The “hERG current change (%, negative = inhibition) at 1uM” value of the first is lower: 8.91% for the first, 15.3% for the second.

Compared with CO[C@@H]1[C@@H](OC(N)=O)[C@@H](O)C(Oc2ccc3c(O)c(NC(=O)c4ccc([O-])c(CC=C(C)C)c4)c(=O)oc3c2C)OC1(C)C.[Na+] (stereo partly drawn), CCN1C(=O)[C@H]2[C@@H](c3ccc(-c4ccc5c(c4)OCO5)c(OC)c3)N[C@@](Cc3ccccc3)(C(=O)OC)[C@H]2C1=O.O=C(O)C(F)(F)F is higher in “hERG current change (%, negative = inhibition) at 1uM” value: 10.2% for the first, 12.9% for the second.

First: CCOc1ccc2nc(N3CCC(C(=O)NC4CCCCC4)CC3)sc2c1
Second: CCOc1ccc(NC(=O)C2CCN(S(C)(=O)=O)CC2)cc1
The “hERG current change (%, negative = inhibition) at 1uM” value of the first is higher: 17.7% for the first, 17.5% for the second.

Compared with O=C(Nc1cccc(S(=O)(=O)N2CCOCC2)c1)c1c2c(nc3ccccc13)CCC2, O=C(Nc1nc(-c2nc3ccccc3s2)cs1)c1ccc(S(=O)(=O)N2CCOCC2)cc1 is lower in “hERG current change (%, negative = inhibition) at 1uM” value: 8.49% for the first, 3.88% for the second.

Compared with CN(C(=O)COC(=O)CCc1nc2ccccc2c(=O)[nH]1)C1CCS(=O)(=O)C1 (stereo not drawn), O=C(COc1ccccc1)N(Cc1cccc(F)c1)C1CCS(=O)(=O)C1 (stereo not drawn) is lower in “hERG current change (%, negative = inhibition) at 1uM” value: 9.85% for the first, 8.38% for the second.

Going from C/C(=N\O)c1ncc(C(F)(F)F)cc1Cl to CCOC(=O)C(=NCCCN(C)C)NNc1cc(C(F)(F)F)ccc1Cl, the “hERG current change (%, negative = inhibition) at 1uM” value falls from 10.8% to -7.94%.

First: COc1cc(NC(=O)c2sc3nc(C)nc(N4CCOCC4)c3c2C)cc(OC)c1OC
Second: COc1cc(C(=O)N/C(=C\c2cn(S(=O)(=O)N(C)C)c3ccccc23)C(=O)N2CCCC2)cc(OC)c1OC
The “hERG current change (%, negative = inhibition) at 1uM” value of the first is higher: 30.1% for the first, 10.8% for the second.

First: CCCOC(=O)c1ccc(NC(=O)CN(C)Cc2cccs2)cc1
Second: Cc1ccc(NC(=O)CN(C)C(=O)Cn2c(=O)oc3ccccc32)cc1
The “hERG current change (%, negative = inhibition) at 1uM” value of the first is higher: 11.8% for the first, 7.84% for the second.

First: CS(=O)(=O)N1CCc2cc(C(=O)OCC(=O)c3ccccc3)ccc21
Second: COc1ccccc1C(=O)NCCC(=O)Nc1cccc(S(=O)(=O)N2CCCC2)c1
The “hERG current change (%, negative = inhibition) at 1uM” value of the first is higher: 15.3% for the first, 7.14% for the second.

Going from CS(=O)(=O)c1cccc(-c2nnc(NC(=O)CCS(=O)(=O)c3ccccc3)o2)c1 to CCCc1nnc(NC(=O)CCS(=O)(=O)Cc2ccccc2)s1, the “hERG current change (%, negative = inhibition) at 1uM” value falls from 3.6% to -5.08%.

First: Clc1cccc(Cl)c1Cn1ccc(C2CC2)n1
Second: CC(C)(C)C(=O)Nc1cccc(-c2cc(-c3c(Cl)cccc3Cl)no2)c1
The “hERG current change (%, negative = inhibition) at 1uM” value of the first is lower: 5.67% for the first, 11% for the second.

Compared with COc1cccc(NC(=O)CSc2nc3ccccc3c(=O)n2CCCC(=O)NCCCN2CCOCC2)c1, COc1cccc(-n2ccnc2SCC(=O)NCc2ccccc2)c1 is higher in “hERG current change (%, negative = inhibition) at 1uM” value: 2.09% for the first, 9.9% for the second.

First: COc1ccc(-c2nc3ccccc3n2CCC(C)C)cc1OC
Second: COc1ccc(C(=O)NCC(=O)N/N=C/c2ccco2)cc1OC
The “hERG current change (%, negative = inhibition) at 1uM” value of the first is lower: -6.45% for the first, 19.8% for the second.

Compared with O=C(CSc1nc2[nH]c(=O)cc(O)c2s1)Nc1ccc(Br)cc1, CCC(=O)Nc1ccc(-c2csc(C)n2)cc1 is lower in “hERG current change (%, negative = inhibition) at 1uM” value: 12.8% for the first, -0.151% for the second.

Going from CCOc1cc(C2Nc3ccccc3C(=O)N2c2ccccc2OC)ccc1O (stereo not drawn) to CC1(C)CC(=O)C2=C(C1)Nc1ccccc1N1C(=O)c3ccccc3C21 (stereo not drawn), the “hERG current change (%, negative = inhibition) at 1uM” value falls from 8.21% to 3.6%.

Going from Cc1cc(C)cc(NS(=O)(=O)c2cc(C(=O)NCc3ccccn3)ccc2Cl)c1 to CSc1ccc(Cl)c(C(=O)Nc2ccc(C)cn2)c1, the “hERG current change (%, negative = inhibition) at 1uM” value rises from 0.728% to 7.68%.

Going from O=C(CCS(=O)(=O)c1ccc(Br)cc1)N1CCCCCC1 to CN(C)S(=O)(=O)c1ccc(S(=O)(=O)N2CCCC2)cc1, the “hERG current change (%, negative = inhibition) at 1uM” value rises from 7.78% to 11.4%.

Compared with CCN(CC)CC(=O)Nc1sc2c(c1C(=O)c1ccccc1OC)CCC2, CCN(CC)CCN(C(=O)c1ccc2c(c1)CCCC2)c1nc2ccc(C)cc2s1.Cl is lower in “hERG current change (%, negative = inhibition) at 1uM” value: 11.8% for the first, 11.1% for the second.

Compared with CCOC(=O)N1CCN(C(=O)c2ccc(N3CCCC3=O)cc2)CC1, CC(C)c1ccc(CN2CCC(Oc3ccc(C(=O)N4CCCC4)cc3)CC2)cc1 is lower in “hERG current change (%, negative = inhibition) at 1uM” value: 10.1% for the first, -33.7% for the second.

Compared with COC(=O)c1ccc(N(CC(=O)NCC2CCCO2)C(=O)CCC(=O)Nc2cc(C)on2)cc1 (stereo not drawn), COC(=O)c1ccc(C(=O)OC)c(NC(=O)CN2CCN(c3ccccc3OC)CC2)c1 is lower in “hERG current change (%, negative = inhibition) at 1uM” value: 6.34% for the first, 3.16% for the second.

First: CCCC/C(=N\O)c1c[nH]c2ccccc12
Second: CCCCNCCCOc1cccc(Cl)c1Cl
The “hERG current change (%, negative = inhibition) at 1uM” value of the first is lower: 7.38% for the first, 9.03% for the second.

Compared with COc1ccc(-c2ccnc3c(C#N)cnn23)cc1, Cc1ccc(OCC(=O)Nc2ccc3c(c2)C(=O)N(CCC(=O)O)C3=O)cc1 is lower in “hERG current change (%, negative = inhibition) at 1uM” value: 13.5% for the first, -8.42% for the second.

First: O=C(CSc1nnc(COc2ccccc2)n1-c1ccccc1)c1ccccc1
Second: Cc1nn(CCOc2ccccc2)c(=O)n1-c1ccc(F)cc1
The “hERG current change (%, negative = inhibition) at 1uM” value of the first is higher: 15.4% for the first, 12% for the second.

First: Cc1cccc(-n2c(O)c(C=Nc3ccccc3O)c3ccccc3c2=O)n1
Second: Nc1nn2c(-c3ccccc3)cc(=O)[nH]c2c1N=Nc1ccc(O)cc1
The “hERG current change (%, negative = inhibition) at 1uM” value of the first is higher: 8.38% for the first, 7.98% for the second.

First: CC(=O)c1nnn(-c2ccc(F)cc2F)c1C
Second: Cc1cc(C(=O)OCC(=O)NC(C)c2ccc(F)cc2)c(C)o1 (stereo not drawn)
The “hERG current change (%, negative = inhibition) at 1uM” value of the first is lower: 5.44% for the first, 9.07% for the second.

Compared with Cc1oc(-c2ccccc2)nc1CS(=O)CC(=O)NC1CCCCCC1 (stereo not drawn), Cc1ccn2cc(CCNC(=O)CC3CCCCC3)nc2c1 is lower in “hERG current change (%, negative = inhibition) at 1uM” value: 2.05% for the first, -2.92% for the second.

First: CN(C(=O)C1CCCO1)C1CCS(=O)(=O)C1 (stereo not drawn)
Second: CCc1ccc(C(=O)CCC2CCCCC2=O)cc1 (stereo not drawn)
The “hERG current change (%, negative = inhibition) at 1uM” value of the first is lower: 6.29% for the first, 13% for the second.

First: CCN(c1ccccc1)S(=O)(=O)c1ccc(Cl)c(NC(=O)CSc2n[nH]c(N)n2)c1
Second: O=C(Nc1ccccc1)OCc1cc(-c2ccccc2Cl)on1
The “hERG current change (%, negative = inhibition) at 1uM” value of the first is higher: 10.9% for the first, 2.53% for the second.

Compared with CC(C)(C)Oc1ccccc1Nc1nc(NCCO)nc(N2CCCC2)n1, Cc1cccn2c(CNCC3OCCc4ccccc43)c(C(=O)N3CCCCC3)nc12 (stereo not drawn) is lower in “hERG current change (%, negative = inhibition) at 1uM” value: 11.9% for the first, 4.81% for the second.

Going from Clc1ccc(SCc2cn3ccsc3n2)cc1 to O=c1cc(CSc2nnc(NC3CCCCC3)s2)nc2sccn12, the “hERG current change (%, negative = inhibition) at 1uM” value falls from 10.3% to -6.23%.

Going from CCCCN(C)CCNC(=O)Cn1ncc2c(=O)oc3ccc(C)cc3c21 to O=c1cnn(Cc2ccc(F)cc2)c2ccccc12, the “hERG current change (%, negative = inhibition) at 1uM” value rises from -0.911% to 1.88%.

Going from Cc1ccc(NC2=C(Cl)C(=O)OC2OC(=O)c2ccco2)cc1C (stereo not drawn) to CCOC(=O)c1cc(C)sc1NC(=O)C(c1ccccc1)c1ccccc1, the “hERG current change (%, negative = inhibition) at 1uM” value falls from 13.3% to 12.1%.

Compared with CCN1/C(=C\C(=S)Nc2ccccc2)Sc2ccccc21, O=c1[nH]c(CN2CCN(S(=O)(=O)/C=C/c3ccccc3)CC2)nc2ccccc12 is lower in “hERG current change (%, negative = inhibition) at 1uM” value: 4.81% for the first, -18.2% for the second.

Going from CCOC(=O)N1CC=C2C(C#N)=C(N)C(C#N)(C#N)[C@H](c3ccc(OC(C)C)c(OCC)c3)[C@H]2C1 to CCOC(=O)c1cc2sc(C)cc2n1CC(=O)N1CCOCC1, the “hERG current change (%, negative = inhibition) at 1uM” value rises from 0.439% to 14.7%.

Going from NC(=O)C1CCN(C(=O)C2c3ccccc3C(=O)N3CCc4ccccc4C23)CC1 (stereo not drawn) to CCCn1c(=O)c(C(=O)NNC(=O)c2cccc([N+](=O)[O-])c2)c(O)c2ccccc21, the “hERG current change (%, negative = inhibition) at 1uM” value rises from -8.22% to 1.46%.

Compared with Cc1ccsc1/C=N/NC(=O)CO, Cc1ccc(C(=O)O)cc1N=Nc1c(O)[nH]c(=O)[nH]c1=O is higher in “hERG current change (%, negative = inhibition) at 1uM” value: -3.41% for the first, 8.92% for the second.

Going from CCOC(=O)C1(Cc2ccc(Cl)cc2)CCN(Cc2ccon2)CC1 to Cc1ccc(/C=C/C(=O)Nc2cc(S(=O)(=O)N3CCCCCC3)ccc2OCC(F)(F)F)o1, the “hERG current change (%, negative = inhibition) at 1uM” value falls from 5.86% to -22%.

First: Cn1cnnc1Sc1ccc(S(C)(=O)=O)cc1[N+](=O)[O-]
Second: CC1CCN(CC(CS(=O)(=O)c2ccc([N+](=O)[O-])cc2)N2CCC(C)CC2)CC1 (stereo not drawn)
The “hERG current change (%, negative = inhibition) at 1uM” value of the first is higher: 9.19% for the first, -6.72% for the second.

Compared with Cc1cc(C2(c3cc(C)c(NC(=O)CN4CCOCC4)c(C)c3)CCCCC2)cc(C)c1NC(=O)CN1CCOCC1, Cc1ccc(-c2nc(SC(C)C(=O)c3c(N)n(C)c(=O)n(C)c3=O)n[nH]2)cc1 (stereo not drawn) is higher in “hERG current change (%, negative = inhibition) at 1uM” value: 6.88% for the first, 8.52% for the second.

First: COCCN1C(=O)N[C@@H](c2ccccc2)[C@H](C(C)=O)[C@H]1C
Second: O=C(O)/C(=C/c1ccco1)c1ccccc1
The “hERG current change (%, negative = inhibition) at 1uM” value of the first is lower: 10.1% for the first, 14.9% for the second.

Going from CC12CCC(C(=O)N(CC(=O)O)C1=O)C2(C)C (stereo not drawn) to Cc1ccc(-c2cccc(C3CC=CC4C3C(=O)N(Cc3ccccc3)C4c3ccc4ccccc4c3)c2)cc1 (stereo not drawn), the “hERG current change (%, negative = inhibition) at 1uM” value falls from 20% to 10.4%.

With CN1CN(C)C(c2ccncc2)=C1c1ccncc1 the “hERG current change (%, negative = inhibition) at 1uM” value was 15.6%.
